From publication PMC4336329 (PLoS ONE, 2015)
Among all 310,000 compounds or so, about 14,000 (4.5%) showed an effect of 50% or more. The effect is printed as a negative number. This is one part of the list.

Molecular target: human ether-à-go-go-related gene (hERG) potassium channel (human, UniProt Q12809)
Assay: primary screen, population patch clamp on CHO cells stably expressing hERG
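Further: peak tail current of the secondary pulse compared with the same well before compound.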

human ether-à-go-go-related gene (hERG) potassium channel, sequence (Q12809 whole entry, looked up): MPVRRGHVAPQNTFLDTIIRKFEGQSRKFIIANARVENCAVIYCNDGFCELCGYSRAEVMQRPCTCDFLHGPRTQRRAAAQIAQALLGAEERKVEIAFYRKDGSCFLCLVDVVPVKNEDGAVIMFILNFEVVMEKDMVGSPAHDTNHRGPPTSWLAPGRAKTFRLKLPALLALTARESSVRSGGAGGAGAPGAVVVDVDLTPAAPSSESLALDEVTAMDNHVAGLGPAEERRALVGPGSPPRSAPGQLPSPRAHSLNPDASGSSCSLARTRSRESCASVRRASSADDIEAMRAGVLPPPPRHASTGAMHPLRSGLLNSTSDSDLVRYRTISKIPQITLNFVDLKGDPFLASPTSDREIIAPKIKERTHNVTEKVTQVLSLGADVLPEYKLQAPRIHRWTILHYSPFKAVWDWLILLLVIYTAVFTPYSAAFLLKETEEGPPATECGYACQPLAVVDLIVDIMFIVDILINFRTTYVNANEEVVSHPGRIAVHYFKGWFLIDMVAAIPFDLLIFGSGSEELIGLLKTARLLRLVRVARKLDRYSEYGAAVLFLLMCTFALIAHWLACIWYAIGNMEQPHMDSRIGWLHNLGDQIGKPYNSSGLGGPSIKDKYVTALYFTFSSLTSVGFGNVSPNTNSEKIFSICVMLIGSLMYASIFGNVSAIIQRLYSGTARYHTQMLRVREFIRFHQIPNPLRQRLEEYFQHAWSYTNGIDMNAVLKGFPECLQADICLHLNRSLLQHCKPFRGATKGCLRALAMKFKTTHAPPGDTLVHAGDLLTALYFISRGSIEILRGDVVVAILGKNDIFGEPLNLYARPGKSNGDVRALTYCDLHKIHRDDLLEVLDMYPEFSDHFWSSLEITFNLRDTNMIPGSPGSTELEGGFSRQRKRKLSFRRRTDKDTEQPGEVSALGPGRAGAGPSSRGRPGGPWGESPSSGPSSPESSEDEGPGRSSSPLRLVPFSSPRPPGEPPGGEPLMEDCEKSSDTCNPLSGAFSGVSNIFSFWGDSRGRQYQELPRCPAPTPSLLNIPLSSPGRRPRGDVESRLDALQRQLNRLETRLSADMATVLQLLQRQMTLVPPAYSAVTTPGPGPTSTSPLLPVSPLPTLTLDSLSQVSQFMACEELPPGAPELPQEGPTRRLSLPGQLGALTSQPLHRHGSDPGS

Structure (SMILES) | hERG current change (%, negative = inhibition) at 10uM
Cc1cccc[n+]1CC(=O)Nc1ccc([N+](=O)[O-])cc1.[Cl-] | -0.368%
CC(=O)OC1CC(C)N(C(=O)c2ccccc2)c2ccc(C)cc21 (stereo not drawn) | -1.74%
CCc1c2c(nc3ccc(OC(=O)N4CCC(N5CCCCC5)CC4)cc13)-c1cc3c(c(=O)n1C2)COC(=O)[C@]3(O)CC.Cl.O | 12.8%
CCOc1ccc(S(=O)(=O)NC(C)C)cc1C(N)=O | 20.9%
COc1cccc2cc(C(=O)NCc3ccc(Cl)cc3)c(=O)oc12 | 14.4%
Cc1ccc(S(=O)(=O)N2CC(C)C(=O)CC2C)cc1 (stereo not drawn) | 4.46%
Cc1cc(C(=O)COC(=O)Cc2n[nH]c(=O)c3ccccc23)c(C)n1-c1cccc(C(F)(F)F)c1 | -7.28%
CCCCCCc1cc2cc(-c3nnc(-c4ccccc4)o3)c(=O)oc2cc1O | 5.15%
O=c1c(C(c2ccccc2)c2c(O)nc3n(c2=O)CCS3)c(O)nc2n1CCS2 | 4.21%
COc1ccc(/C=C/C(=O)Oc2ccc(C)c(C)c2)cc1OC | -15.5%
Cc1nnc(N)s1 | 16.4%
CC(NC(=O)c1cc2ccccc2o1)C(=O)O (stereo not drawn) | 12%
Cc1nonc1OCC(C)(COc1nonc1C)NC(=O)c1ccc(Cl)cc1 | -61.1%
O=C(COC(=O)c1cc([N+](=O)[O-])ccc1NCCO)c1ccccc1 | -15.9%
O=C(NCCSc1ccccn1)c1ccc(Cl)cc1Cl | -11.4%
COc1ccc(N2C(=O)CC(C)(C)CC2=O)cc1OC | 16%
Cc1cc(C)nc(SCC(=O)NN=C2CCCC2)n1 | 34.2%
CN(C)C(CNC(=O)c1ccc(NC(=O)CC#N)cc1)c1ccccc1 (stereo not drawn) | 2.86%
CCN(CC(=O)Nc1ccc(NC(C)=O)cc1)C(=O)Cc1cccc2ccccc12 | 4.98%

Structure (SMILES) | hERG current change (%, negative = inhibition) at 10uM
O=C(C1=C[C@@H](C2CC2)C[C@@H](OCc2ccc(CO)cc2)O1)N1CCN(Cc2ccc3c(c2)OCO3)CC1 | -51.7%
Cc1ccc(OCCC(=O)N(CC(=O)Nc2ccccc2C(F)(F)F)Cc2ccco2)cc1 | -15.2%
O=C(NCc1ccco1)C1CCN(S(=O)(=O)c2ccc(-n3cnnn3)cc2)CC1 | -70.5%
O=S(=O)(c1ccc(S(=O)(=O)N2CCC(O)CC2)cc1)N1CCCC1 | 23%
CSc1nc2ccc(NC(=O)c3cc4ccccc4o3)cc2s1 | 26.6%
c1ccc(-c2cn3c(n2)CCC3)cc1 | 7.39%
OCCC1CN(Cc2cnc(-c3ccccc3)s2)CCN1Cc1ccccc1 (stereo not drawn) | -57.5%
CCCCn1c(N)c(N(CC(C)C)C(=O)C2CCN(S(=O)(=O)c3ccc(F)cc3)CC2)c(=O)[nH]c1=O | -2.26%
COc1cccc(NC(=S)N(CCCN2CCOCC2)C(C)c2cc3ccccc3o2)c1 (stereo not drawn) | -44%
CN1CCN(C2Cc3ccccc3Sc3ccc(Cl)cc32)CC1.O=C([O-])/C=C\C(=O)[O-] (stereo not drawn) | -65.9%
COC(=O)c1ccccc1NC(=O)NCc1ccncc1 | 0.204%
Cc1ccc(NC(=S)NCc2ccc(F)cc2)cc1 | 2.33%
Cc1ccc(S(=O)(=O)NC(=O)NN2CC3CCCC3C2)cc1 (stereo not drawn) | 24.4%
COc1cccc(OCC(=O)NNC(=O)C(=O)N2CCCC2)c1 | -0.427%
O=C(CCCN1C(=O)C2CC=CCC2C1=O)Nc1ccccc1Cl (stereo not drawn) | -13.9%
CC1(C)CC(=O)C2=C(C1)Oc1ncn(CCCO)c(=N)c1C2c1ccccc1 (stereo not drawn) | -29%
CCOC(=O)c1c(NC(=O)COC(=O)c2c(C)noc2C)sc2c1CCC2 | 2.68%
CCCCCCCCCSc1n[nH]c(N)n1 | -3.66%
CN(CC(=O)N1CCc2ccccc21)S(=O)(=O)c1ccc(Cl)cc1 | -51.2%

Structure (SMILES) | hERG current change (%, negative = inhibition) at 10uM
CCOc1ccc(-c2cnc(NCc3cccc4ccccc34)n2CCOC)cc1.O=C(O)C(=O)O | -58.8%
Cn1cc(CN2CCN(Cc3ccccc3)C(CCO)C2)c(-c2ccccc2)n1 (stereo not drawn) | -37.9%
CCOc1ccc(-c2nnc(SCc3nnc(-c4ccccc4)o3)n2-c2ccccc2F)cc1 | -0.81%
O=Cc1cn(Cc2ccccc2[N+](=O)[O-])c2ccccc12 | -6.81%
CC(C)C(c1nnnn1C1CCCC1)N1c2ccccc2CC1C (stereo not drawn) | -13.5%
O=[N+]([O-])c1ccc(Nc2ccccn2)c([N+](=O)[O-])c1 | -4.46%
COc1ccc(-c2nnc(-c3ccc(OCC(C)C)cc3)o2)cc1 | 14.5%
CCN(CC)c1ccc(/C=C/c2nc3ccccc3s2)cc1 | 6.35%
CCCC1(CCC)NC(=O)NC1=O | 20.9%
O=C(Cc1ccc(Cl)cc1)Nc1cccc(S(=O)(=O)Nc2ccccc2F)c1 | 11.9%
C=Cc1ncc(OC)c2c1[nH]c1ccccc12 | 0.633%
Cc1c(NS(=O)(=O)c2ccc(N)cc2)c(=O)n(-c2ccccc2)n1C | 22.1%
CCCCNC(=O)Cc1c(O)c2ccccc2[nH]c1=O | 6.39%
CCOC(=O)C1CCCN(C/C(O)=C(\C#N)c2nc(-c3ccc(Cl)cc3)cs2)C1 (stereo not drawn) | -35.3%
CCOc1ccc(NC(=O)c2nc(SCC)ncc2Cl)cc1 | 15%
CCCOc1ccc(C(=O)CCC(=O)NNC(=O)c2cccs2)cc1 | -4.05%
COc1ccc(OCC(=O)N2CCc3ccccc3C2)cc1 | 6.27%
O=c1[nH]nc(C(F)(F)F)c2nnn(Cc3ccccc3Cl)c12 | 14.1%
CCOCCCNC(=O)c1ccc2c(c1)ncn2-c1ccc(C)cc1C | -16.7%
